According to the supplement of paper PMC4967469:

Legend:
Test in all cases: Viability of human cancer cell lines after 72 h of drug (GDSC screen)
[1] = compound: Cn1cnc2c(F)c(Nc3ccc(Br)cc3Cl)c(C(=O)NOCCO)cc21 [AZD6244]; settings: top dose 4 µM; screen: GDSC drug entry 1498; top dose inferred
Experimental: (§1)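 Human cancer cell lines in 384-well plates, medium with 10% serum, drug for 72 h over a 256-fold dose range (nine 2-fold or five 4-fold steps up to the top dose). Adherent lines were fixed and stained with the nucleic acid dye Syto60, suspension lines read with resazurin; signal relative to control wells, capped at 0 and 100%. One two-parameter sigmoid per drug and line, fitted in a mixed model over all curves with the slope shared within a line.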

[2] = compound: N#CC(c1ccnc(NCCc2cccnc2)n1)c1nc2ccccc2s1 [AS601245]; settings: top dose 8 µM; top dose inferred
Experimental: as §1

[3] = compound: NC(=O)C1CCCc2c1[nH]c1ccc(Cl)cc21 [EX-527]; settings: top dose 20 µM
Experimental: as §1

[4] = compound: Nc1ccc(C(=O)Nc2cccc(-c3nc(N4CCOCC4)c4oc5ncccc5c4n3)c2)cn1 [YM201636]; settings: top dose 5.12 µM; top dose inferred
Experimental: as §1

Cell Line | AUC [1] | IC50 [1] [µM] | AUC [2] | IC50 [2] [µM] | AUC [3] | IC50 [3] [µM] | AUC [4] | IC50 [4] [µM]
A498 (kidney, adherent) | 0.828 | > 4 | 0.969 | > 8 | 0.976 | > 20 | 0.973 | > 5.12
A673 (rhabdomyosarcoma, adherent) | 0.912 | > 4 | 0.891 | 7.65 | 0.988 | > 20 | 0.957 | > 5.12
A2780 (ovary, semi-adherent) | 0.983 | > 4 | 0.86 | 7.12 | 0.961 | > 20 | 0.819 | 3.05
ABC-1 (lung adenocarcinoma, adherent) | 0.973 | > 4 | 0.833 | 6.7 | 0.969 | > 20 | 0.934 | > 5.12
ACHN (kidney, adherent) | 0.72 | 1.16 | 0.721 | 2.33 | 0.983 | > 20 | 0.883 | > 5.12
AN3-CA (endometrium, adherent) | 0.879 | > 4 | 0.711 | 2.1 | 0.972 | > 20 | 0.879 | > 5.12
ASH-3 (thyroid, adherent) | 0.603 | 0.479 | 0.605 | 0.97 | 0.98 | > 20 | 0.988 | > 5.12
BCPAP (thyroid, adherent) | 0.776 | 1.45 | 0.803 | 3.54 | 0.985 | > 20 | 0.916 | > 5.12
BEN (non-small cell lung carcinoma, adherent) | 0.97 | > 4 | 0.908 | > 8 | 0.98 | > 20 | 0.931 | > 5.12
BFTC-905 (bladder, adherent) | 0.825 | 1.97 | 0.787 | 2.97 | 0.977 | > 20 | 0.973 | > 5.12
BFTC-909 (kidney, adherent) | 0.916 | > 4 | 0.907 | > 8 | 0.983 | > 20 | 0.949 | > 5.12
BHT-101 (thyroid, adherent) | 0.455 | 0.188 | 0.839 | 5.71 | 0.976 | > 20 | 0.892 | > 5.12
BHY (head and neck, adherent) | 0.889 | > 4 | 0.824 | 4.79 | 0.987 | > 20 | 0.906 | > 5.12
BICR10 (head and neck, adherent) | 0.868 | > 4 | 0.846 | 7.24 | 0.983 | > 20 | 0.981 | > 5.12
BICR22 (head and neck, adherent) | 0.555 | 0.362 | 0.966 | > 8 | 0.983 | > 20 | 0.983 | > 5.12
BICR78 (head and neck, adherent) | 0.618 | 0.559 | 0.627 | 1.18 | 0.981 | > 20 | 0.969 | > 5.12

The IC50 comes from the fitted curve, where viability falls to half of the control; a limit (>, <) means that the fit lies beyond the doses tested. AUC is the area under the same curve over the 256-fold range up to the top dose, as a fraction; it is 1 without any effect and falls as sensitivity rises. For some assays here: Any top dose called inferred is not printed in the source and was worked back from the curve model. For some assays here: Where an entry number is given, a second screen of the drug exists; the two often differ.
